Measured values from the RNAGym collection of RNA variant scans (doi:10.1073/pnas.2313332121).
This sample is rich in variants without activity.

B1: TPR 5TU (parent)
chain: GGAUCUUCUCGAUCUAACAAAAAAGACAAAUCUGCCACAAAGCUUGAGAGCAUCUUCGGAUGCAGAGGCGGCAGCCUUCGGUGGCGCGAUAGCGCCAACGUUCUCAACUAUGACACGCAAAACGCGUGCUCCGUUGAAUGGAGUUUAUCAUG

Variants of: B1
Test: polymerase ribozyme fitness, log enrichment relative to wild type (log ratio); higher = more active; in vitro selection for triplet polymerase activity
Outline: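 Mutant libraries were PCR-built and transcribed for each subunit of a heterodimeric triplet polymerase ribozyme and selected for one round in triplicate at −7 °C, frozen, before gel excision of extended constructs and streptavidin-bead capture. Input and output libraries were Illumina-sequenced, keeping genotypes with ≥10 input reads and ≥1 read per output. Fitness is a logarithmic ratio of genotype to wild-type enrichment, in base 2, using inverse-variance-weighted replicate averages.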

Row | Variant | polymerase ribozyme fitness (log ratio)
1 | GGAUCUUCUCGCUCUAACAAAAAAGACAAAUCUGCCACAAAGCUUGAGAGCAUCUUCGGAAGCAGAGCCGGCAGCCUUCGGUGGCGCGAUAGGCCCAACGUUCUUAACUAUGACACGCAAAACGCGUGCUCCGUUGAAUGGAGUUUAUCAUG [A12C U61A G68C C93G G94C C105U] | ≤ -4.2
2 | GGAUCUUCUCGCUCUAACAAAAAAGACAAAUCUGCCACAAAGCUUGAGAGCAUCUUCGGAUGCAGAGGCGGCAGCCAUCGGUGGCACGAUAGCGCCAACGUUCUCAACUAUGACACGCAAAACGCGUGCUCCGUUGAAUGGAGUUUAUCGUG [A12C U77A G86A A150G] | ≤ -4.2
3 | GGAUCUUCUCGCUCUAACAAAAAAGACAAAUCUGCCACAAAGCUUGAGAGCAUCUUCGGAUGCAGAGGCGGCAGCCGUCGGUGGCGCGCUAGGGCCAACGUUCUAAACUAUGACACGCAAAACGCGUGCUCCGUUGAAUGGAGUUUAUCAUG [A12C U77G A89C C93G C105A] | ≤ -4.2
4 | GGAUCUUCUCGGUCUCACAAAAAAGACAUAUCUGCCAAAAAGCUUGAGAGCAUCUUCGGAUGCAGAGGCGGCAGCCUUCGGUGGCGCGAUAGCGGCAACGUUCUCAACUAGGACACGCAAAACGCGUGCUCCGUUCAAUGGAGUUUAUCAUG [A12G A16C A29U C38A C95G U111G G136C] | ≤ -4.2
5 | GGAUCUUCUCGGUCUGACAAAAAAGACAAAUCUGCCACAAAGCGUGAGAGCAUCUUCGGAUGCAGAGGCGGCAGCCUUCGCUGACGCGAUAGCGUCAACGUUCUCAACUAUGACACGCAAAACGCGUGCUCCGUUGAAUGGAGAUCAUCAUG [A12G A16G U44G G81C G84A C95U U144A U146C] | ≤ -4.2
6 | GGAUCUUCUCGGUCUAGCAGAAAAGACAAAUCUGCCACUAAGCUUGAGACCAUCUUCGGAUGCAGCGGCGGCAGCCUUCGGUGGCGUGACAGCGCCAACGUUCUCAACUAUGACACGCAAAACGCGUGCUCCGUUGAAUGGAGUUUAUCAUG [A12G A17G A20G A39U G50C A66C C87U U90C] | ≤ -4.2
7 | GGAUCUUCUCGGUCUAACCAAAAAGACAAAUCUGCCACGAAGCUUGAGAGCAUAUUCGGAUGCAGAGGCGGCAGCCUUCGGUGGCGCGAUAGCGUCAACGUUCUGAACUUUGACACGCAAAACGCGUGCUCCGUUGAAUGGAGUUUAUCAUG [A12G A19C A39G C54A C95U C105G A110U] | ≤ -4.2
8 | GGAUCUUCUCGGUCUAACGAAAAAGACAAUUCUGCCACAAAGCUUGAGAGCAUAUUCGGAUGCAGAGGCGGCAGCCUUCGGUUGCGCGAUAGCGCCAACGUUCUCAACUAUGACACGCAAAACGCAUGCUCCGUUGAAUGGAGUUUAUCAUG [A12G A19G A30U C54A G83U G126A] | ≤ -4.2
9 | GGAUCUUCUCGGUCUAACACAAAAGACAAAUCUGCCACAAAGCUUGAGAGCAUCUUGGGAUGCAGAGGCGGCAGGCUUCGGUGGUGCGAUAGCGCCAACGUUCUCAACUAUGACGCGCAAAACGCGUGCUCCGUUGAAUGUAGUUUAUCAUG [A12G A20C C57G C75G C85U A115G G141U] | ≤ -4.2
10 | GGAUCUUCUCGGUCUAACAUAAAAUACAAAUCUGCCACAAAGCUUGAGAGCAUCAUCGGAUGCAGAGGCGGCAGCCUUCGGUGGCGCGAUAGCGCCAACGUUCUCGACUAUGACACGCAAAACGCGUGCUCCGUUGAUUUGAGUCUAUCAUG [A12G A20U G25U U55A A106G A138U G140U U145C] | ≤ -4.2
11 | GGAUCUUCUCGGUCUAACAAAAUAGACAAAUCUGCCACAAAGCUUGAGAGCAUCUUCGGAUGCAGAGGCGGCAGCCUUCGGUGGGGCGAUAGCGCCAACGUUCUCAACUAUGACACGCAAAACGCGUGCUCCGUUGAAUGGAGUUUAUCGUG [A12G A23U C85G A150G] | ≤ -4.2
12 | GGAUCUUCUCGGUCUAACAAAAAGGACAAAUCUGACACAAAGCGUGAGACCAUCUUCGGAUGCAGAGGCGCCAGCCUUCGGUGGCGCGAUAGCGCCAACGUUCUCAACUAUGACACGCAAAACACGUGCUCCGUUGAAUGGAGUUUAUCAUG [A12G A24G C35A U44G G50C G71C G124A] | ≤ -4.2
13 | GGAUCUUCUCGGUCUAACAAAAAUGACAAAUCUACCACAAAGCUUGAGAGCAUCUUCGGAUGCAGAGGCGGCAGCCUUCGGUGGCGCGAUAUCGCCAACGUUCUCAACUAUGACACGCAAAACGCCUGCUCCGUUGAAUGGAGUUUAUCAUG [A12G A24U G34A G92U G126C] | -1.83
14 | GGAUCUUCUCGGUCUAACAAAAAUGACAAAUCUGCCACAAAGCUUGAGAGCAACUUCGGAUGCAGAGGCGGCAGCCUUCGGGGACGCGUUAGCGCCAACGUUCUCAACUAUGACACGCAAAACGCGUGCUCCGUUGAAUGGAGUUUAUCAUG [A12G A24U U53A U82G G84A A89U] | -3.13
15 | GGAUCUUCUCGGUCUAACAAAAAAGGCAAAUCUGCCACAAAGCUUGAGAGCAUCUUAGGAUGCAGAGGCGGCAGCCUUCGGUGGCGCGAUAGCGCAAACGUUCUCAACUAUGACACACAAAACGCGUGCUCCGUUGAAUGGAGUUUAACAUG [A12G A26G C57A C96A G117A U148A] | ≤ -4.2
16 | GGAUCUUCUCGGUCUAACAAAAAAGACGAAUCUGCCACAAAGCUUGAGAGCAUCUUCGGAAGCAGAGGCGGCAGCCUUCGGUGGUGCGAUAGCGCCAACGUUCUCAACUAUGACACGCAAAACGCGUGCUCCGUUGAAUGGAGUUUAUCAUG [A12G A28G U61A C85U] | ≤ -4.2
17 | GGAUCUUCUCGGUCUAACAAAAAAGACAACUCUGCCACAAAGCUUGAGAGCAUCUUCGGAUGCAGAGGCGGCAGCCUUCGGUGGCUGGAUAGUGCCAACGUUCUCAACUAUGACACGCAAAACGCGUGCUCCGUUGAACGGAGUUUAUCAUG [A12G A30C G86U C87G C93U U139C] | ≤ -4.2
18 | GGAUCUUCUCGGUCUAACAAAAAAGACAAUUCUGCCACAAAGCUUGAGAGCAUCUGCCGAUGCAGAGGCGGCAGACUUCGGUGUCGCGAUAGCGCCAACGUUCUCAACUAUGACAAGCAAAACGCGUGCUCCGUUGAAUGGAGUUUAUCAUG [A12G A30U U56G G58C C75A G84U C116A] | ≤ -4.2
19 | GGAUCUUCUCGGUCUAACAAAAAAGACAAAUCUGCCGCAAAGCUUGAGAGCUUCUUCGGAUGCAGAGGCGGCGGCCUUCGGUUGCGCGAUAGCGCCAACGUUCUCAACUAUGACACGCAAAACGCGUGCUCCGUUCAAUGGAGUUUAUCAUG [A12G A37G A52U A73G G83U G136C] | ≤ -4.2
